The target of test [1] is T1, LAG-3 expressed on CHO-K1 cells (UniProt P18627 23-525).
T1 chain: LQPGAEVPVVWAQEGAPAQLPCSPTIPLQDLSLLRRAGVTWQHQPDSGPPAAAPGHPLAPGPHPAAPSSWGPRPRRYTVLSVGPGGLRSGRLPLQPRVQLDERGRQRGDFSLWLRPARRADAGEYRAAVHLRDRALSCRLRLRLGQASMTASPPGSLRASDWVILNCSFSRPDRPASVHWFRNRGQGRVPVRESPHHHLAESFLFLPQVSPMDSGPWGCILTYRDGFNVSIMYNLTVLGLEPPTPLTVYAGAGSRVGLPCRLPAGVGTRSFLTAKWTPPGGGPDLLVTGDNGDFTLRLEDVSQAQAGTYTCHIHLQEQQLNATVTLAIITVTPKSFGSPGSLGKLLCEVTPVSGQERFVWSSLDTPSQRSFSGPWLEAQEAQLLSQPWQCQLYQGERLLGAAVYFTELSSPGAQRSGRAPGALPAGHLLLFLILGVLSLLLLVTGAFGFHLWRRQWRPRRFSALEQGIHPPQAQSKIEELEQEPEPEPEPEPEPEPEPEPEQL
The test is described as follows: FACS binding. Background: A flow cytometer gives signals particle by particle.

Test [2] has as its target PD-L1 expressed on CHO-K1 cells (UniProt Q9NZQ7). Put plainly: FACS binding.
Sequence of UniProt Q9NZQ7 (Q9NZQ7 19-290): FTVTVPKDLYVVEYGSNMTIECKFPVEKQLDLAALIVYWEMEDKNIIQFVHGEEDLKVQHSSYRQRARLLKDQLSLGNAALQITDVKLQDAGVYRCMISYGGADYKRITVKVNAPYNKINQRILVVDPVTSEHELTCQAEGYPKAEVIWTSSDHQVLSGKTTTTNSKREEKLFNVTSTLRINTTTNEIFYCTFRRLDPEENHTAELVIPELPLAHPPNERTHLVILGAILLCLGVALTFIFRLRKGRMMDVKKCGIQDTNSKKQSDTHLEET

B1: mPDL1LCv1-E4-sLAG3-HCv1 (bispecific antibody)
light: DIQMTQSPSSLSASVGDRVTITCRASQDVSTAVDWYQQKPGKAPKLLIYSASYRYTGVPDRFSGSGSGTDFTFTISSLQPEDIATYYCQQHYSIPFTFGQGTKLEIKRTVAAPSVFIFPPSDEQLKSGTASVVCLLNNFYPREAKVQWKVDNALQSGNSQESVTEQDSKDSTYSLSSTLTLSKADYEKHKVYACEVTHQGLSSPVTKSFNRGECESKYGPPSPPSPEVQLVESGGGLVQPGGSLRLSCAASGYTVSSYCMGWFRQAPGKGREGVSAIDSDGSVSYADSVKGRFTISKDNSKNTLYLQMNSLRAEDTAVYFCAADLCWVDQDQGEYNTWGQGTLVTVSS
heavy: EVQLVQSGAEVKKPGASVKVSCKASGYIFTGYGITWVRQAPGQGLEWMGEIFPRRVQTYYSEKFKGRVTMTTDTSTSTAYMELRSLRSDDTAVYYCARDYDPYFALDYWGQGTTVTVSSASTKGPSVFPLAPSSKSTSGGTAALGCLVKDYFPEPVTVSWNSGALTSGVHTFPAVLQSSGLYSLSSVVTVPSSSLGTQTYICNVNHKPSNTKVDKKV[letters of human IgG1 Fc with changes not shown]
With B1, the EC50 (as a rule, the concentration giving half of the maximal effect) in test [1] came to 0.558 nM; in test [2], 0.224 nM.

B2: sLAG3-G12-mPDL1HCv1 (bispecific antibody)
heavy: EVQLVESGGGLVQPGGSLRLSCAASGYTVSSYCMGWFRQAPGKGREGVSAIDSDGSVSYADSVKGRFTISKDNSKNTLYLQMNSLRAEDTAVYFCAADLCWVDQDQGEYNTWGQGTLVTVSSGGGGSGGGGSGSEVQLVQSGAEVKKPGASVKVSCKASGYIFTGYGITWVRQAPGQGLEWMGEIFPRRVQTYYSEKFKGRVTMTTDTSTSTAYMELRSLRSDDTAVYYCARDYDPYFALDYWGQGTTVTVSSASTKGPSVFPLAPSSKSTSGGTAALGCLVKDYFPEPVTVSWNSGALTSGVHTFPAVLQSSGLYSLSSVVTVPSSSLGTQTYICNVNHKPSNTKVDKKV[letters of human IgG1 Fc with changes not shown]
light: DIQMTQSPSSLSASVGDRVTITCRASQDVSTAVDWYQQKPGKAPKLLIYSASYRYTGVPDRFSGSGSGTDFTFTISSLQPEDIATYYCQQHYSIPFTFGQGTKLEIKRTVAAPSVFIFPPSDEQLKSGTASVVCLLNNFYPREAKVQWKVDNALQSGNSQESVTEQDSKDSTYSLSSTLTLSKADYEKHKVYACEVTHQGLSSPVTKSFNRGEC
As to B2, the figures for the EC50 in test [1] and in test [2] were 0.353 nM and 0.44 nM, respectively.

B3: mPDL1HCv1-E4-sLAG3 (bispecific antibody)
heavy: EVQLVQSGAEVKKPGASVKVSCKASGYIFTGYGITWVRQAPGQGLEWMGEIFPRRVQTYYSEKFKGRVTMTTDTSTSTAYMELRSLRSDDTAVYYCARDYDPYFALDYWGQGTTVTVSSASTKGPSVFPLAPSSKSTSGGTAALGCLVKDYFPEPVTVSWNSGALTSGVHTFPAVLQSSGLYSLSSVVTVPSSSLGTQTYICNVNHKPSNTKVDKKV[letters of human IgG1 Fc with changes not shown]ESKYGPPSPPSPEVQLVESGGGLVQPGGSLRLSCAASGYTVSSYCMGWFRQAPGKGREGVSAIDSDGSVSYADSVKGRFTISKDNSKNTLYLQMNSLRAEDTAVYFCAADLCWVDQDQGEYNTWGQGTLVTVSS
light: B2 light
Turning to B3, the EC50 is 0.399 nM in test [1] and 0.189 nM in test [2].

B4: mPDL1HCv1-G15-sLAG3 (bispecific antibody)
heavy: EVQLVQSGAEVKKPGASVKVSCKASGYIFTGYGITWVRQAPGQGLEWMGEIFPRRVQTYYSEKFKGRVTMTTDTSTSTAYMELRSLRSDDTAVYYCARDYDPYFALDYWGQGTTVTVSSASTKGPSVFPLAPSSKSTSGGTAALGCLVKDYFPEPVTVSWNSGALTSGVHTFPAVLQSSGLYSLSSVVTVPSSSLGTQTYICNVNHKPSNTKVDKKV[letters of human IgG1 Fc with changes not shown]GGGGSGGGGSGGGGSEVQLVESGGGLVQPGGSLRLSCAASGYTVSSYCMGWFRQAPGKGREGVSAIDSDGSVSYADSVKGRFTISKDNSKNTLYLQMNSLRAEDTAVYFCAADLCWVDQDQGEYNTWGQGTLVTVSS
light: B2 light
Take B4: the EC50 was 0.382 nM in test [1] and 0.187 nM in test [2].

Values taken from patent US20220220204A1 (published 2022).
